The supplement of paper PMC9588766
Where a name gives a salt, the structure may show the parent alone. In all, about 1,900 compounds were measured (“cell viability of compound + 1 nM pemigatinib relative to pemigatinib-only (DMSO) wells”: median about 0.95, lowest 2% from about 0.22 on). The list shows a part of the results.

Test system: PDC-DUC18828
Test: cell viability of compound + 1 nM pemigatinib relative to pemigatinib-only (DMSO) wells (fraction); PDC-DUC18828 is a patient-derived cholangiocarcinoma cell line; higher = less growth inhibition
Details: first compound 1 µM; pemigatinib concentration 1 nM; 72 h
Experimental: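 Selleck Bioactive library screen in the patient-derived FGFR2 fusion-positive ICC cell line PDC-DUC18828 (500 cells/well). Each compound was tested at 1 uM with 1 nM pemigatinib, in triplicate, for 72 h. Viability was read by CellTiter-Glo and normalised to plate DMSO controls. Value is the paper's averaged normalised viability.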

| Structure (SMILES) | cell viability |
| --- | --- |
| CCCSc1ccc2[nH]c(NC(=O)OC)nc2c1 [Albendazole] + CCN1C(=O)N(c2c(F)c(OC)cc(OC)c2F)Cc2cnc3[nH]c(CN4CCOCC4)cc3c21 [pemigatinib] | 0.543 |
| CCc1ccc(CCOc2ccc(CC3SC(=O)NC3=O)cc2)nc1 (stereo not given) [Pioglitazone] + CCN1C(=O)N(c2c(F)c(OC)cc(OC)c2F)Cc2cnc3[nH]c(CN4CCOCC4)cc3c21 [pemigatinib] | 1.05 |
| CCc1ccc(CCOc2ccc(CC3SC(=O)NC3=O)cc2)nc1 (stereo not given) [Pioglitazone HCl] + CCN1C(=O)N(c2c(F)c(OC)cc(OC)c2F)Cc2cnc3[nH]c(CN4CCOCC4)cc3c21 [pemigatinib] | 1.03 |
| Cc1ccc(N(CC2=NCCN2)c2cccc(O)c2)cc1 [Phentolamine Mesylate] + CCN1C(=O)N(c2c(F)c(OC)cc(OC)c2F)Cc2cnc3[nH]c(CN4CCOCC4)cc3c21 [pemigatinib] | 1.02 |
| CC(C)Nc1cc(-c2c[nH]c(C(=O)N[C@H](CO)c3cccc(Cl)c3)c2)c(Cl)cn1 + CCN1C(=O)N(c2c(F)c(OC)cc(OC)c2F)Cc2cnc3[nH]c(CN4CCOCC4)cc3c21 [pemigatinib] | 0.726 |
| CNC[C@@H](O)c1ccc(O)c(O)c1 [L-Adrenaline] + CCN1C(=O)N(c2c(F)c(OC)cc(OC)c2F)Cc2cnc3[nH]c(CN4CCOCC4)cc3c21 [pemigatinib] | 0.943 |
| CN(C)[C@@H]1C(O)=C(C(N)=O)C(=O)[C@@]2(O)C(O)=C3C(=O)c4c(O)cccc4[C@@](C)(O)[C@H]3C[C@@H]12 [Tetracycline HCl] + CCN1C(=O)N(c2c(F)c(OC)cc(OC)c2F)Cc2cnc3[nH]c(CN4CCOCC4)cc3c21 [pemigatinib] | 0.957 |
| O=C(Nc1cc(C(F)(F)F)cc(C(F)(F)F)c1)c1cc(Cl)ccc1O + CCN1C(=O)N(c2c(F)c(OC)cc(OC)c2F)Cc2cnc3[nH]c(CN4CCOCC4)cc3c21 [pemigatinib] | 0.18 |
| C[C@H](N[C@@H](CCc1ccccc1)C(=O)O)C(=O)N1CCC[C@H]1C(=O)O [Enalaprilat Dihydrate] + CCN1C(=O)N(c2c(F)c(OC)cc(OC)c2F)Cc2cnc3[nH]c(CN4CCOCC4)cc3c21 [pemigatinib] | 1 |
| NC(=O)N1CCC(CC(=O)N2CCC([C@H]3c4ncc(Br)cc4CCc4cc(Cl)cc(Br)c43)CC2)CC1 [Lonafarnib] + CCN1C(=O)N(c2c(F)c(OC)cc(OC)c2F)Cc2cnc3[nH]c(CN4CCOCC4)cc3c21 [pemigatinib] | 0.846 |
| COCCCC/C(=N\OCCN)c1ccc(C(F)(F)F)cc1 [Fluvoxamine maleate] + CCN1C(=O)N(c2c(F)c(OC)cc(OC)c2F)Cc2cnc3[nH]c(CN4CCOCC4)cc3c21 [pemigatinib] | 0.953 |
| COC(=O)[C@H](c1ccccc1Cl)N1CCc2sccc2C1 [Clopidogrel] + CCN1C(=O)N(c2c(F)c(OC)cc(OC)c2F)Cc2cnc3[nH]c(CN4CCOCC4)cc3c21 [pemigatinib] | 0.999 |
| O=C(NOCC1CC1)c1ccc(F)c(F)c1Nc1ccc(I)cc1Cl + CCN1C(=O)N(c2c(F)c(OC)cc(OC)c2F)Cc2cnc3[nH]c(CN4CCOCC4)cc3c21 [pemigatinib] | 0.863 |
| Nc1nc(F)nc2c1ncn2[C@@H]1O[C@H](COP(=O)(O)O)[C@@H](O)[C@@H]1O [Fludarabine Phosphate] + CCN1C(=O)N(c2c(F)c(OC)cc(OC)c2F)Cc2cnc3[nH]c(CN4CCOCC4)cc3c21 [pemigatinib] | 0.985 |
| CCOC(=O)N1CCC(=C2c3ccc(Cl)cc3CCc3cccnc32)CC1 [Loratadine] + CCN1C(=O)N(c2c(F)c(OC)cc(OC)c2F)Cc2cnc3[nH]c(CN4CCOCC4)cc3c21 [pemigatinib] | 0.996 |
| O=C(COc1ccc(C(=O)c2ccccc2)cc1)NC1CCN(Cc2ccccc2)CC1 [AdipoRon] + CCN1C(=O)N(c2c(F)c(OC)cc(OC)c2F)Cc2cnc3[nH]c(CN4CCOCC4)cc3c21 [pemigatinib] | 0.987 |
| CC1(C)CCC(c2ccc(Cl)cc2)=C(CN2CCN(c3ccc(C(=O)NS(=O)(=O)c4ccc(N[C@H](CCN5CCOCC5)CSc5ccccc5)c(S(=O)(=O)C(F)(F)F)c4)cc3)CC2)C1 [ABT-263 (Navitoclax)] + CCN1C(=O)N(c2c(F)c(OC)cc(OC)c2F)Cc2cnc3[nH]c(CN4CCOCC4)cc3c21 [pemigatinib] | 0.847 |
| CS(=O)(=O)c1ccc(C(=O)Nc2ccc(Cl)c(-c3ccccn3)c2)c(Cl)c1 [Vismodegib (GDC-0449)] + CCN1C(=O)N(c2c(F)c(OC)cc(OC)c2F)Cc2cnc3[nH]c(CN4CCOCC4)cc3c21 [pemigatinib] | 1.05 |

| Structure (SMILES) | cell viability |
| --- | --- |
| COc1ccc(CC(C)NCC(O)c2ccc(O)c(NC=O)c2)cc1 (stereo not given) [Formoterol Hemifumarate] + CCN1C(=O)N(c2c(F)c(OC)cc(OC)c2F)Cc2cnc3[nH]c(CN4CCOCC4)cc3c21 [pemigatinib] | 0.971 |
| CC(C)C[C@H](NC(=O)[C@H](Cc1ccccc1)NC(=O)c1cnccn1)B(O)O [Bortezomib (PS-341)] + CCN1C(=O)N(c2c(F)c(OC)cc(OC)c2F)Cc2cnc3[nH]c(CN4CCOCC4)cc3c21 [pemigatinib] | 0.0199 |
| Cc1ccc2c(c1)C(=O)C1(O)CCN(c3ccccc3)C1=N2 (single isomer, unassigned; (-)) [(-)-Blebbistatin] + CCN1C(=O)N(c2c(F)c(OC)cc(OC)c2F)Cc2cnc3[nH]c(CN4CCOCC4)cc3c21 [pemigatinib] | 0.998 |
| Oc1c(Br)cc(Br)c2cccnc12 [Broxyquinoline] + CCN1C(=O)N(c2c(F)c(OC)cc(OC)c2F)Cc2cnc3[nH]c(CN4CCOCC4)cc3c21 [pemigatinib] | 1.06 |
| Nc1ccc2ncnc(NCCc3ccc(Oc4ccccc4)cc3)c2c1 + CCN1C(=O)N(c2c(F)c(OC)cc(OC)c2F)Cc2cnc3[nH]c(CN4CCOCC4)cc3c21 [pemigatinib] | 0.842 |
| CNc1nc(-c2ccc3c(N)n[nH]c3c2)cc(N2C[C@@H](C(=O)NC3CCCCC3)CC[C@H]2C)n1 + CCN1C(=O)N(c2c(F)c(OC)cc(OC)c2F)Cc2cnc3[nH]c(CN4CCOCC4)cc3c21 [pemigatinib] | 0.696 |
| CN1CCN(S(=O)(=O)c2ccc(-c3cnc(N)c(C(=O)Nc4cccnc4)n3)cc2)CC1 + CCN1C(=O)N(c2c(F)c(OC)cc(OC)c2F)Cc2cnc3[nH]c(CN4CCOCC4)cc3c21 [pemigatinib] | 1.03 |
| COc1ccc(-c2coc3cc(O)ccc3c2=O)cc1 [Formononetin] + CCN1C(=O)N(c2c(F)c(OC)cc(OC)c2F)Cc2cnc3[nH]c(CN4CCOCC4)cc3c21 [pemigatinib] | 0.995 |
| c1ccc2c(c1)CCCC2C1=NCCN1 (stereo not given) [Tetrahydrozoline HCl] + CCN1C(=O)N(c2c(F)c(OC)cc(OC)c2F)Cc2cnc3[nH]c(CN4CCOCC4)cc3c21 [pemigatinib] | 0.909 |
| CC[C@]12C=CCN3CC[C@@]4(c5cc([C@@]6(C(=O)OC)C[C@@H]7C[C@@H](C(C)(F)F)CN(Cc8c6[nH]c6ccccc86)C7)c(OC)cc5N(C)[C@H]4[C@@](O)(C(=O)OC)[C@@H]1OC(C)=O)[C@@H]32 [Vinflunine Tartrate] + CCN1C(=O)N(c2c(F)c(OC)cc(OC)c2F)Cc2cnc3[nH]c(CN4CCOCC4)cc3c21 [pemigatinib] | 0.264 |
| CC(C)OC(=O)C(C(=O)OC(C)C)=C1SC=CS1 [Malotilate] + CCN1C(=O)N(c2c(F)c(OC)cc(OC)c2F)Cc2cnc3[nH]c(CN4CCOCC4)cc3c21 [pemigatinib] | 0.974 |
| C1N2CN3CN1CN(C2)C3 [Methenamine] + CCN1C(=O)N(c2c(F)c(OC)cc(OC)c2F)Cc2cnc3[nH]c(CN4CCOCC4)cc3c21 [pemigatinib] | 0.907 |
| O=C(O)C1=C[C@@H](O)[C@@H](O)[C@H](O)C1 [Shikimic Acid] + CCN1C(=O)N(c2c(F)c(OC)cc(OC)c2F)Cc2cnc3[nH]c(CN4CCOCC4)cc3c21 [pemigatinib] | 0.978 |
| C=C(C)[C@@H]1CC[C@]2(C(=O)O)CC[C@]3(C)[C@H](CC[C@@H]4[C@@]5(C)CC[C@H](O)C(C)(C)[C@@H]5CC[C@]43C)[C@@H]12 [Betulinic acid] + CCN1C(=O)N(c2c(F)c(OC)cc(OC)c2F)Cc2cnc3[nH]c(CN4CCOCC4)cc3c21 [pemigatinib] | 0.933 |
| CC(C)c1nc(N(C)S(C)(=O)=O)nc(-c2ccc(F)cc2)c1/C=C/[C@@H](O)C[C@@H](O)CC(=O)O [Rosuvastatin Calcium] + CCN1C(=O)N(c2c(F)c(OC)cc(OC)c2F)Cc2cnc3[nH]c(CN4CCOCC4)cc3c21 [pemigatinib] | 0.986 |
| CCCCCOc1ccc(-c2ccc(-c3ccc(C(=O)N[C@H]4C[C@@H](O)[C@@H](O)NC(=O)[C@@H]5[C@@H](O)[C@@H](C)CN5C(=O)[C@H]([C@@H](C)O)NC(=O)[C@H]([C@H](O)[C@@H](O)c5ccc(O)cc5)NC(=O)[C@@H]5C[C@@H](O)CN5C(=O)[C@H]([C@@H](C)O)NC4=O)cc3)cc2)cc1 + CCN1C(=O)N(c2c(F)c(OC)cc(OC)c2F)Cc2cnc3[nH]c(CN4CCOCC4)cc3c21 [pemigatinib] | 0.938 |
| CS(=O)(=O)c1ccc([C@@H](O)[C@@H](CF)NC(=O)C(Cl)Cl)cc1 [Florfenicol] + CCN1C(=O)N(c2c(F)c(OC)cc(OC)c2F)Cc2cnc3[nH]c(CN4CCOCC4)cc3c21 [pemigatinib] | 0.975 |
